# Some of the results follow. Many values rest on one well or one pass, so single values are uncertain.
# Columns and labels:
# Test in all cases: cell count relative to DMSO control; melanoma cells; higher = more viable cells
# Settings in all cases: library dose: standard library concentration; 72 h
# G361 = system: G361
# IPC-298 = system: IPC-298
# IST-MEL1 = system: IST-MEL1
# LB2518-MEL = system: LB2518-MEL
# LOXIMVI = system: LOXIMVI
# MEL-HO = system: MEL-HO
# MZ2-MEL = system: MZ2-MEL
# MeWo = system: MeWo
# RPMI7951 = system: RPMI7951
# RVH-421 = system: RVH-421
# SkMel28 = system: SkMel28
# SkMel2 = system: SkMel2
# SkMel5 = system: SkMel5
# UACC257 = system: UACC257
# UACC62 = system: UACC62
# WM115 = system: WM115
# WM1716 = system: WM1716
# WM1745 = system: WM1745
# WM3526 = system: WM3526
# SkMel30 = system: SkMel30
# 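Note: cells treated in 1,536-well plates, then fixed and DAPI-stained, with nuclei counted from automated high-throughput microscope images.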
SMILES,cell count (G361) [%],cell count (IPC-298) [%],cell count (IST-MEL1) [%],cell count (LB2518-MEL) [%],cell count (LOXIMVI) [%],cell count (MEL-HO) [%],cell count (MZ2-MEL) [%],cell count (MeWo) [%],cell count (RPMI7951) [%],cell count (RVH-421) [%],cell count (SkMel28) [%],cell count (SkMel2) [%],cell count (SkMel5) [%],cell count (UACC257) [%],cell count (UACC62) [%],cell count (WM115) [%],cell count (WM1716) [%],cell count (WM1745) [%],cell count (WM3526) [%],cell count (SkMel30) [%]
"N#CC[C@H](C1CCCC1)n1cc(-c2ncnc3[nH]ccc23)cn1 [ruxolitinib] + O=c1[nH]nc(Sc2ncc([N+](=O)[O-])s2)n1-c1ccc2c(c1)OCCO2 [BI78D3] (first compound 5 µM, partner dose 1 µM)",90.5,88,85.4,121,127,79.9,90.6,94.7,77.8,67.8,77.5,112,72.5,79.9,78.7,91.7,76.4,72.8,97.4,–
"CC[C@]1(O)C[C@H]2CN(CCc3c([nH]c4ccccc34)[C@@](C(=O)OC)(c3cc4c(cc3OC)N(C=O)[C@H]3[C@@](O)(C(=O)OC)[C@H](OC(C)=O)[C@]5(CC)C=CCN6CC[C@]43[C@@H]65)C2)C1 [vincristine] + CC(=O)O[C@@]12CO[C@@H]1C[C@H](O)[C@@]1(C)C(=O)[C@H](O)C3=C(C)[C@@H](OC(=O)[C@H](O)[C@@H](NC(=O)OC(C)(C)C)c4ccccc4)C[C@@](O)([C@@H](OC(=O)c4ccccc4)[C@H]21)C3(C)C [Docetaxel] (first compound 0.0005 µM, partner dose 0.0005 µM)",14.3,37.6,47.6,–,50.6,37.1,–,27.1,22.9,53.3,20.2,17.4,30.4,60.4,40.7,35.6,36.9,32.8,34.3,52.2
"N#CC[C@H](C1CCCC1)n1cc(-c2ncnc3[nH]ccc23)cn1 [ruxolitinib] + CS(=O)(=O)CCNCc1ccc(-c2ccc3ncnc(Nc4ccc(OCc5cccc(F)c5)c(Cl)c4)c3c2)o1 [lapatinib] (first compound 5 µM, partner dose 4 µM)",56.4,91.6,94.8,–,69.5,69.9,57.2,70.3,37.5,80.9,72.9,96.5,64.4,70.3,–,82.4,74.7,68,81.8,72.4
"N#CC[C@H](C1CCCC1)n1cc(-c2ncnc3[nH]ccc23)cn1 [ruxolitinib] + NC1(c2ccc(-c3nc4ccn5c(=O)[nH]nc5c4cc3-c3ccccc3)cc2)CCC1 [MK2206] (first compound 5 µM, partner dose 2 µM)",75.6,86.1,105,–,95.4,67,–,77,72.2,75,94.5,84.5,67,85,65.1,92.7,81,79.9,73.1,127
"N#CC[C@H](C1CCCC1)n1cc(-c2ncnc3[nH]ccc23)cn1 [ruxolitinib] + N#Cc1c(O)c2c(-c3ccc(-c4ccccc4O)cc3)csc2[nH]c1=O [A769662] (first compound 5 µM, partner dose 10 µM)",91.3,97,81.8,–,–,74.7,91.2,77.4,75.4,77.5,98.4,101,102,90,108,89.3,84,–,103,123
"N#CC[C@H](C1CCCC1)n1cc(-c2ncnc3[nH]ccc23)cn1 [ruxolitinib] + Cn1sc(=O)n(Cc2ccccc2)c1=O [TDZD-8] (first compound 5 µM, partner dose 2 µM)",77.1,90.5,89.1,–,125,96.8,–,80.3,74.3,135,115,96.9,72.4,98.1,91.7,101,84.8,99.3,92.9,85
"N#CC[C@H](C1CCCC1)n1cc(-c2ncnc3[nH]ccc23)cn1 [ruxolitinib] + COc1ccc(-c2ccc3c(N4CCOCC4)nc(N4C[C@@H](C)O[C@@H](C)C4)nc3n2)cc1CO [KU0063794] (first compound 5 µM, partner dose 0.1 µM)",83.9,78.9,95.8,122,77,87.1,81,80.3,96.6,89.4,99.1,106,61.9,98.5,88.8,81.5,89.8,–,98.6,99.7
"CC[C@]1(O)C[C@H]2CN(CCc3c([nH]c4ccccc34)[C@@](C(=O)OC)(c3cc4c(cc3OC)N(C=O)[C@H]3[C@@](O)(C(=O)OC)[C@H](OC(C)=O)[C@]5(CC)C=CCN6CC[C@]43[C@@H]65)C2)C1 [vincristine] + O=S(=O)(c1ccccc1)N(CC(F)(F)F)c1ccc(C(O)(C(F)(F)F)C(F)(F)F)cc1 [T0901317] (first compound 0.0005 µM, partner dose 7 µM)",96.1,90.7,83.3,78.7,73.3,93.2,64.4,48.2,37.8,78.8,101,86.2,49.6,58.3,55.6,43,42.5,–,74.3,60.8
"Cc1cc(Nc2cc(N3CCN(C)CC3)nc(Sc3ccc(NC(=O)C4CC4)cc3)n2)n[nH]1 [Tozasertib] + N#CC[C@H](C1CCCC1)n1cc(-c2ncnc3[nH]ccc23)cn1 [ruxolitinib] (first compound 0.03 µM, partner dose 5 µM)",60.8,81,107,–,83.6,80.9,–,79.6,82.8,74.9,85.7,96.9,78.6,86.5,87.2,65.2,70.7,43.7,90.7,101
"Cc1cc(Nc2cc(N3CCN(C)CC3)nc(Sc3ccc(NC(=O)C4CC4)cc3)n2)n[nH]1 [Tozasertib] + Cc1cc([N+](=O)[O-])ccc1NS(=O)(=O)c1cc(Cl)ccc1Cl [FH535] (first compound 0.03 µM, partner dose 5 µM)",49.1,58.4,60,–,84.6,51.9,–,76.1,66.7,59.1,71.7,91.9,89.5,65.2,80,60.3,72.1,–,81.9,100
"N#CC[C@H](C1CCCC1)n1cc(-c2ncnc3[nH]ccc23)cn1 [ruxolitinib] + CCN(CC)CCNC(=O)c1c(C)[nH]c(/C=C2\C(=O)Nc3ccc(F)cc32)c1C [sunitinib] (first compound 5 µM, partner dose 2 µM)",88.5,64.8,92,–,129,99.9,–,57.5,42.2,76.9,69.1,80.8,50.3,69.9,68.6,64.2,78.2,42.2,61.7,76.4
"N#CC[C@H](C1CCCC1)n1cc(-c2ncnc3[nH]ccc23)cn1 [ruxolitinib] + Cn1cc(/C=C2\C(=O)Nc3cccnc32)c2ccccc21 [GW441756] (first compound 5 µM, partner dose 2 µM)",87.9,112,91.7,131,125,81.6,–,94.8,97.3,104,98.8,112,67.2,104,101,106,86.7,–,99.2,126
"Cc1cc(Nc2cc(N3CCN(C)CC3)nc(Sc3ccc(NC(=O)C4CC4)cc3)n2)n[nH]1 [Tozasertib] + O=C1NC(=O)/C(=C/c2ccc(-c3ccc(F)cc3O)o2)S1 [AS252424] (first compound 0.03 µM, partner dose 5 µM)",71.6,88.2,82.5,73.3,106,74.6,72.1,72.7,54.3,92,58.7,75,81.6,88.7,70,70.5,83,–,75.8,78.5
"CC[C@]1(O)C[C@H]2CN(CCc3c([nH]c4ccccc34)[C@@](C(=O)OC)(c3cc4c(cc3OC)N(C=O)[C@H]3[C@@](O)(C(=O)OC)[C@H](OC(C)=O)[C@]5(CC)C=CCN6CC[C@]43[C@@H]65)C2)C1 [vincristine] + O=C(O)C(=O)Nc1sc2c(c1C(=O)O)CCNC2 [TCS401] (first compound 0.0005 µM, partner dose 8.33333 µM)",49.3,78.5,63.3,62.2,49.5,71,37.8,28.1,24.9,122,27.7,11.2,28,66.3,64,22.6,24,–,47.6,74.9
"N#CC[C@H](C1CCCC1)n1cc(-c2ncnc3[nH]ccc23)cn1 [ruxolitinib] + COc1cc([C@@H]2c3cc4c(cc3[C@@H](O[C@@H]3O[C@@H]5CO[C@@H](C)O[C@H]5[C@H](O)[C@H]3O)[C@H]3COC(=O)[C@H]23)OCO4)cc(OC)c1O [etoposide] (first compound 5 µM, partner dose 0.1 µM)",76.2,77.3,85.8,–,135,70.9,79.1,89.4,72.6,72.9,93.9,67,85.8,82.1,82.4,105,71.4,69.2,102,94.5

# — the supplement of paper PMC4604168 (melanoma cell lines)
